The list shows a part of the results.
What was measured:
HSkMC = human skeletal muscle cells; assay: cytotoxicity call (relative viability < 0.9); conditions: 10 µM
HepG2 = assay: cytotoxicity call (relative viability < 0.9); conditions: 10 µM
S. aureus RN4220 = assay: growth inhibition call (relative growth <= 0.2); conditions: 50 µM

C=CC1(C)CC(=O)C2(O)C(C)(O1)C(O)C(O)C1C(C)(C)CCC(O)C12C (configuration not stated)
inactive: cytotoxicity call (HSkMC) | cytotoxicity call (HepG2) | growth inhibition call (S. aureus RN4220)

COc1ccc(S(=O)(=O)N(C)C[C@@H]2Oc3ccc(NC(=O)Nc4cccc5ccccc45)cc3C(=O)N([C@H](C)CO)C[C@@H]2C)cc1
inactive: cytotoxicity call (HSkMC) | cytotoxicity call (HepG2) | growth inhibition call (S. aureus RN4220)

C[N+](C)(C)CCOC(N)=O
inactive: cytotoxicity call (HSkMC) | cytotoxicity call (HepG2) | growth inhibition call (S. aureus RN4220)

COc1ccc(S(=O)(=O)N(C)C[C@@H]2Oc3ccc(NS(=O)(=O)c4ccc(F)cc4)cc3CC(=O)N([C@@H](C)CO)C[C@H]2C)cc1
inactive: cytotoxicity call (HSkMC) | cytotoxicity call (HepG2) | growth inhibition call (S. aureus RN4220)

— the antibiotic and cytotoxicity screens of Wong et al. (2023)
